# Experimental data from the supplement of paper PMC9446081.
# Out of some 39,000 compounds screened, about 220 (0.56%) showed activity. Some of the results follow.
# Tested on: Escherichia coli K-12 BW25113
# Experiment: relative growth (OD600 normalised to plate interquartile mean) (fraction); higher = less growth inhibition, active = 0.2 or less
# Conditions: 50 µM; LB; incubation time: overnight (16-24 h)
# 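Also: static incubation at 37 °C against the wild-type strain, values averaged over two biological replicates.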
row,Compound,relative growth
1,C[C@@H]1CCCCO[C@@H](CN(C)C(=O)Nc2cccc3ccccc23)[C@@H](C)CN([C@H](C)CO)C(=O)c2cc(NC(=O)CCC(F)(F)F)ccc2O1,inactive: 1.01
2,C[C@H](CO)N1C[C@H](C)[C@@H](CN(C)S(=O)(=O)c2ccc(F)cc2)OCCCC[C@H](C)Oc2ccc(NC(=O)Nc3ccc(F)cc3)cc2C1=O,inactive: 1.03
3,C[C@@H]1CCCCO[C@@H](CN(C)Cc2ccc(C(F)(F)F)cc2)[C@H](C)CN([C@@H](C)CO)C(=O)c2cc(N(C)C)ccc2O1,inactive: 0.976
4,NCCCC(O)(P(=O)(O)O)P(=O)(O)O,inactive: 1.01
5,C[C@H]1CN([C@@H](C)CO)C(=O)Cc2cc(NS(=O)(=O)c3cccs3)ccc2O[C@H]1CN(C)S(=O)(=O)c1ccc(F)cc1,inactive: 0.978
6,COc1ccccc1CNC(=O)C[C@H]1C[C@@H]2c3cc(NC(=O)C4CCOCC4)ccc3O[C@@H]2[C@@H](CO)O1,inactive: 0.974
7,O=C(NOC[C@H](O)CO)c1cc(Br)c(F)c(F)c1Nc1ccc(I)cc1F,inactive: 1
8,CC[C@H]1OC(=O)C[C@@H](O)[C@H](C)[C@@H](O[C@@H]2O[C@H](C)C[C@H](N(C)C)[C@H]2O)[C@@H](CC=O)C[C@@H](C)C(=O)/C=C/[C@]2(C)O[C@H]2[C@@H]1C,active: 0.149
9,Nc1nnc(CC(=O)N2CCCCC2)o1,inactive: 1
10,C[C@@H]1CN([C@@H](C)CO)C(=O)c2cccc(NC(=O)Nc3ccc(C(F)(F)F)cc3)c2O[C@@H]1CN(C)Cc1ccccc1,inactive: 0.995
11,COc1ccc(C(=O)Nc2ccc3c(c2)C(=O)N(C)[C@@H]2CC[C@H](CC(=O)NCC4CC4)O[C@H]2CO3)cc1,inactive: 1.03
12,C[C@H]1CN([C@@H](C)CO)C(=O)c2cccc(NC(=O)CCCCCC(=O)Nc3ccccc3N)c2O[C@@H]1CN(C)Cc1ccc(-c2ccccc2)cc1,inactive: 0.867
13,Cc1ccc(S(=O)(=O)Nc2ccc3c(c2)C(=O)N([C@H](C)CO)C[C@@H](C)[C@@H](CN(C)CC2CC2)O3)cc1,inactive: 0.986
14,C[C@@H]1CN([C@H](C)CO)C(=O)c2cc(NC(=O)Nc3ccccc3)ccc2O[C@@H]1CN(C)Cc1ccc(Oc2ccccc2)cc1,inactive: 1.01
15,CNC(=O)C(=O)Nc1ccc(C)c(F)c1,inactive: 0.975
16,CCCNC(=O)N1C[C@H](C)[C@H](OC)CN(C)C(=O)c2ccc(NS(=O)(=O)CC(F)(F)F)cc2OC[C@@H]1C,inactive: 0.963
17,Nc1ncn(C[C@@H](O)CO)c2nc(Br)nc1-2,inactive: 0.957
18,C[C@@H]1CN([C@@H](C)CO)S(=O)(=O)c2ccc(C#C[C@@H](C)O)cc2O[C@@H]1CN(C)C,inactive: 0.978
19,C[C@H]1O[C@@H](O[C@H]2[C@@H](O)C[C@H](O[C@H]3[C@@H](O)C[C@H](O[C@H]4CC[C@@]5(C)[C@H](CC[C@@H]6[C@@H]5C[C@@H](O)[C@]5(C)[C@@H](C7=CC(=O)OC7)CC[C@]65O)C4)O[C@@H]3C)O[C@@H]2C)C[C@H](O)[C@@H]1O,inactive: 1.04

row,Compound,relative growth
1,COc1ccccc1NC(=O)N(C)C[C@H]1Oc2ncc(C#CC(C)C)cc2C(=O)N([C@H](C)CO)C[C@@H]1C,inactive: 0.982
2,C[C@@H]1CCCCO[C@@H](CN(C)C(=O)NC2CCCCC2)[C@H](C)CN([C@H](C)CO)C(=O)c2cc(NS(=O)(=O)c3cccs3)ccc2O1,inactive: 0.994
3,C[C@@H]1CCCCO[C@H](CN(C)Cc2ccc(Cl)c(Cl)c2)[C@@H](C)CN([C@H](C)CO)C(=O)c2cc(NC(=O)c3ccccc3)ccc2O1,inactive: 1.05
4,C[C@@H]1CN([C@H](C)CO)C(=O)c2cc(NC(=O)Cc3ccccc3)ccc2O[C@@H](C)CCCCO[C@H]1CN(C)Cc1ccc(Cl)c(Cl)c1,inactive: 0.992
5,C[C@@H]1CN([C@@H](C)CO)C(=O)CCCn2cc(nn2)CO[C@H]1CN(C)S(=O)(=O)c1ccccc1C#N,inactive: 0.992
6,CCC[C@@H](O)C#Cc1cnc2c(c1)C(=O)N([C@H](C)CO)C[C@H](C)[C@H](CN(C)S(=O)(=O)c1cccc(F)c1)O2,inactive: 1.03
7,CC(=O)NCc1nnnn1C1CCCCC1,inactive: 0.964
8,Nc1c(C(=O)c2ccccc2)no[n+]1[O-],inactive: 0.963
9,Cc1noc(C)c1NC(=O)N(C)C[C@H]1Oc2ccc(NS(C)(=O)=O)cc2CC(=O)N([C@H](C)CO)C[C@H]1C,inactive: 1.02
10,C[C@@H]1CN([C@H](C)CO)C(=O)Cc2cc(N(C)C)ccc2O[C@H]1CN(C)S(=O)(=O)c1cn(C)cn1,inactive: 0.994
11,C[C@H]1CN([C@@H](C)CO)C(=O)c2cc(C3=CCCCC3)cnc2O[C@@H]1CN(C)S(=O)(=O)c1cn(C)cn1,inactive: 0.99
12,C[C@@H]1CN([C@@H](C)CO)C(=O)Cc2cc(NC(=O)C3CCCCC3)ccc2O[C@@H]1CN(C)C(=O)Nc1cccc2ccccc12,inactive: 0.987
13,C[C@@H]1CCCCO[C@@H](CN(C)Cc2ccc(C(F)(F)F)cc2)[C@H](C)CN([C@@H](C)CO)C(=O)c2cc(NC(=O)Nc3ccc4c(c3)OCO4)ccc2O1,inactive: 1.01
14,Cc1noc(C)c1S(=O)(=O)N(C)C[C@@H]1Oc2ccc(NC(=O)C3CC3)cc2CC(=O)N([C@H](C)CO)C[C@H]1C,inactive: 0.987
15,O=C(CN1CCOCC1)N[C@@H]1CC[C@H](CCNS(=O)(=O)c2ccccc2F)O[C@H]1CO,inactive: 0.979
16,C=CCOC(=O)[C@@H]1[C@H]2C(=O)O[C@H](c3ccccc3)[C@H](c3ccccc3)N2[C@H](c2ccc(OCCOC(=O)NCCCCCC(=O)NO)cc2)[C@]12C(=O)Nc1ccccc12,inactive: 1
17,C[C@@H]1CCCCO[C@@H](CN(C)CC2CC2)[C@H](C)CN([C@@H](C)CO)C(=O)c2cc(NC(=O)Nc3ccc(F)cc3)ccc2O1,inactive: 1.01
18,C[C@@H]1CCCCO[C@@H](CN(C)C(=O)Cc2ccccc2)[C@H](C)CN([C@H](C)CO)C(=O)c2cc(NS(=O)(=O)c3ccc(F)cc3)ccc2O1,inactive: 1.03
